Over roughly 33,000 sequences, “E-score (-0.5 to 0.5)” has its median near -0.04; the highest 2% begin near 0.36. This is one part of the list.
Molecular target: T1, Hmlalpha2 (UniProt P0CY09)
T1 sequence: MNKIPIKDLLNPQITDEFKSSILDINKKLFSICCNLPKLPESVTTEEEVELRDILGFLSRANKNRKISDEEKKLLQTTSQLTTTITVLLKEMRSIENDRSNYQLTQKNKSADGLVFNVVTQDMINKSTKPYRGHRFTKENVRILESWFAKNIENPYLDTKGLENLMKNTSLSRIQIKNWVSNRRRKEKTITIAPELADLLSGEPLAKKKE
Test: PBM E-score (8-mer binding enrichment) (E-score (-0.5 to 0.5)); higher = stronger / more preferred TF binding; most listed sequences are background and not binding sites
Settings: protein concentration: 200 nM; construct: GST-full length
How it was run: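 The E-score, a modified Wilcoxon-Mann-Whitney statistic, was computed by the Universal PBM Analysis Suite for every ungapped eight-base word pooled with its reverse complement. Scans behind it were normalised with masliner after bound GST-tagged yeast transcription factors were detected with fluorescent anti-GST. The proteins, at about 100-200 nM, had been applied to universal all-10-mer Agilent arrays made double-stranded by primer extension.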

Point of comparison: ATTGCAAG, “PBM E-score” value 0.091. Against it:
- CTTACCAC — lower, 0.0369
- ATGATTAC — higher, 0.326
- ATATAAAC — higher, 0.235
- CGCACGGC — lower, -0.138
- GGGTTTAA — higher, 0.166
- AGTCGGCC — lower, -0.279
- GTTGCGAA — lower, 0.0227
- TCGGGCAA — lower, -0.154
- GTCGGTAA — lower, 0.0853
- AGACAGCG — lower, -0.0777
- TACAGCTA — lower, -0.0203
- CGACTTGC — lower, -0.197
- GTGAGGAA — lower, -0.213
- ACAATGAT — higher, 0.128
- CGTGAAAC — lower, 0.0577
- ACGCAAAT — higher, 0.162
- GACATTAA — higher, 0.18
- CATGAGGA — lower, -0.0501
- CCCCACGA — lower, -0.129
- TCCACGAA — lower, 0.0882
- AGCTCCTC — lower, -0.154
- CCGTGCCC — lower, -0.17
- AAACGAGT — higher, 0.135
- ATGTTGAA — higher, 0.395
- CTCAATGC — lower, -0.0878
- AGTTTCAA — lower, 0.0268
- AACGATGC — lower, -0.138
- CCCCTCCA — lower, -0.158
- AGATTCCC — lower, -0.244
- CTATAACA — higher, 0.335
- ACGATGGG — lower, -0.139
- CCTGGGGC — lower, -0.332
- AACTGCTC — lower, -0.0975
- CGCTCTCC — lower, -0.231
- ACATGAAT — higher, 0.371
- CATCTGCC — lower, -0.139
- CATTTCAC — lower, 0.0402
- TAATCAGA — lower, -0.00349
- CTCCGCAC — lower, -0.221
- GCCCTCAC — lower, -0.253
- CCAGTCCG — lower, -0.223
- CCATTATC — lower, 0.0776
- AACAGATC — higher, 0.142
- ACGCGCCC — higher, 0.162
- GTTGGCTA — lower, -0.121
- GGGTTACC — lower, -0.116
- AATACAGG — higher, 0.2
- GCTGCTAA — lower, -0.0568
- GTCTTAGA — higher, 0.102
- CGTGCAAC — lower, 0.0645
- AGGCTTAT — lower, -0.155
- ATAACGGA — higher, 0.125
- ATAGCCTA — lower, -0.00808
- ACAACCCC — lower, -0.0745
- GATGGTAC — lower, -0.0855
- CAATTGTA — lower, 0.0101
- ATCAGATC — lower, -0.171
- CGTGGATA — lower, 0.00463
- AACGAGTA — higher, 0.184
- GCGGTACA — higher, 0.0995
- ACGTTCAG — lower, -0.135
- AAGCGGTC — lower, -0.179
- ATCCAGTC — lower, -0.0582
- AGCACACT — lower, 0.012
- AGACTACC — lower, -0.0614
- GCATAGCC — lower, -0.0671
- ATCAAACC — lower, -0.021
- CTTCGCTC — lower, -0.224
- GAAATCCA — lower, 0.05
- CTGCCGTC — lower, -0.247
- CAGCTGGG — lower, -0.172
- GGTTAATA — higher, 0.129
- CTGTTCGA — lower, -0.0447
- GGGTGAAC — lower, 0.089
- CTAACGAA — lower, 0.0054
- ATTCCTCC — lower, -0.187
- AAGTGATT — lower, 0.0454
- GACTTTTA — lower, -0.0507
- CTGTTGCC — lower, -0.0825
- ATAGACCG — lower, -0.0246
- GCAAAAGA — lower, -0.165
- GTGTTTAA — higher, 0.351
- ACGATTAG — higher, 0.141
- ATAGCCCG — lower, -0.203
- AGGGACTG — lower, -0.311
- ATACGCGG — higher, 0.239
- AAGTCATC — lower, -0.205
- AAGAACGG — lower, -0.143
- AGAAGGCC — lower, -0.213
- CTGCCAAA — lower, -0.0421
- CGATTCTA — lower, -0.133
- AAGAAGGT — lower, -0.0083
- AGTCCACT — lower, -0.226
- AAAAGTCC — lower, 0.00655
- CTACCGCC — lower, -0.0878
- TGGAGGAA — lower, -0.256
- CGATAAGC — lower, -0.202
- AGATAGGG — lower, -0.343
- AGACCAAG — lower, -0.288
- GAATGCAA — lower, -0.0259
- ACCGGTAC — lower, -0.197
- GAAAATGA — lower, -0.00024
- AATAATGA — lower, 0.0386
- ATGCGAAT — lower, -0.0339
- AACGGATA — lower, 0.0178
- CCAGTCAA — lower, -0.166
- ACTCCGGA — higher, 0.131
- AACCTTAT — lower, -0.00844
- ACGGGCAC — lower, -0.0945
- CGCGAGGC — lower, -0.0264
- AATAGATC — lower, -0.0345
- CCTTAGCC — lower, -0.238
- TCTAAAGA — higher, 0.248
- GGCCACCA — lower, -0.139
- GCGGTATA — lower, -0.0483
- CGTCCATA — lower, 0.0125
- CGGAATTA — higher, 0.214
- AGAGCAAG — lower, -0.12
- ACACGAGT — higher, 0.389
- GTGGCTAA — lower, -0.0321
- GGTACTAA — lower, 0.0288
- ACAATCGT — higher, 0.214
- CCAAGCGG — lower, -0.288
- ACGATCCC — lower, -0.166
- CCCGTTCA — lower, -0.302
- ACCTGATA — higher, 0.202
- CTATATAC — higher, 0.255
- CCAACAGG — lower, -0.183
- TTGACAAA — higher, 0.207
- AAAGGGGG — lower, -0.11
- GTTGCTAA — higher, 0.143
- CGATCTAC — higher, 0.113
- CGAACAGC — lower, -0.112
- CCTGTTAC — higher, 0.176
- CCCTGTGA — lower, -0.148
- CTGTGAAG — lower, -0.109
- GGAAGTTA — higher, 0.169
- AGGCATCC — lower, -0.183
- ATAACACG — higher, 0.461
- ATTTCCCA — lower, 0.0804
- CCCCCCGG — lower, -0.366
- GGTTCATA — lower, 0.00306
- AATCAAAC — higher, 0.0913
- AGAGATCC — lower, -0.317
- CCACTTAC — higher, 0.171
- CTAGCCGC — lower, -0.119
- ACTACAAT — higher, 0.137
- GGCGCGCC — lower, -0.141
- AGATCACA — higher, 0.111
- CATGTGGC — higher, 0.188
- CCCGAAAG — lower, -0.159
- AGGCAGAA — lower, -0.197
- AAGGCTAT — lower, -0.161
- GCAAGTCC — lower, -0.179
- AACATGCC — higher, 0.388
- CCGCTACA — lower, 0.0775
- ATTACCAA — higher, 0.196
- AAGGGCCG — lower, -0.241
- GGTACCCA — lower, -0.123
- CTCGGGCA — lower, 0.076
- ATGACTCC — lower, -0.126
- CGAGCCGA — lower, -0.0411
- AGACCATA — lower, -0.0358
- CTTAGTGA — lower, -0.168
- AAAGGGAT — lower, -0.00422
- AGCCTCGA — lower, -0.0211
- GCTTACAA — higher, 0.275
- CGTTCTAC — higher, 0.139
- ACCCGCGG — lower, 0.0152
- CTCTCCTC — lower, -0.272
- AGAAAGCC — lower, -0.0885

Source: the supplement of paper PMC3334620
